Measurements: the RNAGym collection of RNA variant scans (doi:10.7554/elife.90254)
The source gives no read counts; variants with many changes may rest on few reads.

B1: LINE1-mini (parent)
chain: GGCAGAGCUCAACACAGCGUGGCAAAGUGGCUGUGGCUAGACUGCC

Variants of: B1
Assay: self-cleavage, relative activity (ratio to wild type); higher = more cleavage; in vitro, sequencing; the parent is a self-cleaving ribozyme

| Variant | self-cleavage |
| --- | --- |
| GGCAGAGCUCAACACAGCGUGGCUAAGUGGCGGUGGCUAAACUGGC [A24U U32G G40A C45G] | 0.06 |
| GGAAGAGAUCAACACAGCGUGGCAACGUGGCUGUAGCUAGACUGCC [C3A C8A A26C G35A] | 2.88 |
| GGCAGAGCUCAACCCAGAGUGGCAAAAUGGCUGUGGCUAGACUGCU [A14C C18A G27A C46U] | 0.01 |
| GGCAGAUCUCAACACAGCGUGGCAAAGUUACUGUGCAUAGACUGCC [G7U G29U G30A G36C C37A] | 0.28 |
| GGCAGAGCUCAACACAGCGGAGCAAAGCGUCUGUGGCUAGACUGCC [U20G G21A U28C G30U] | 0.25 |
| GGCAGAGAUUAACACAGCGAUGCAAAGUGGCUGUGGCGAGACUGCC [C8A C10U U20A G21U U38G] | 0.03 |
| GGGAGAGUUCAACACAGCGUGGCACAGUGGCUGUGGCUAGACUGCC [C3G C8U A25C] | 0.35 |
| GCCAGAGCUCAACACAGCUGGGCAAAAUGGCUGUGGCUAGACUGCC [G2C G19U U20G G27A] | 0.1 |
| AGCAGAGCUCAACACUGCGUGUCAAAGUGGCUGUGGCUAGAAUGCC [G1A A16U G22U C42A] | 0.05 |
| GGCAGAGAUCAAGACGGCGUGGCAUAGUGGCUAUCGCUAGACUGCC [C8A C13G A16G A25U G33A G35C] | 0.05 |
| GGCAUAGCUCAGCACAGCGUUGCAAAAUGGCUGUGGCUAGACUGCC [G5U A12G G21U G27A] | 0 |
| GGCCGAGCUCAACUCAGCGUGGCAAAGUGGCUCUGGCUAGACUGCC [A4C A14U G33C] | 0.02 |
| GGCAAAGAUCAACACAGCGUGGCCAAGUGGCUGUGGCUAGACUGCC [G5A C8A A24C] | 0.97 |
| GGGAGAGCUCAACACAGCGUGGCAAAGUGGCUGUUGAUAGACUGCC [C3G G35U C37A] | 0.14 |
| AGCAGAGCUCAACACGGAGUGGCACAGUGGCUGUGGCUAGACUGCC [G1A A16G C18A A25C] | 0.03 |
| GGCCUAGCUCAACACCGCGUGGUAAAGUGGCUGUAGCUAGACUGCC [A4C G5U A16C C23U G35A] | 0.08 |
| GGCAAAACUCAACACAGCGUGGCAAAGUGGCUUUGGCUAGACUGCC [G5A G7A G33U] | 0.05 |
| GGCGUAGCUCAACACAGCGUGGCAAAGUGGCUGUGGCUAGACUUCC [A4G G5U G44U] | 0.06 |
| GGCAGCGUUCAACACAGUGUGGCAAGGUGGCUGUCGCUAGACUGCC [A6C C8U C18U A26G G35C] | 0.06 |

| Variant | self-cleavage |
| --- | --- |
| GGCAGAUCUCAACUCAGCGUGGAAAAGUGGCGCUGGCUAGGCUGCC [G7U A14U C23A U32G G33C A41G] | 0.09 |
| GGCAGAGCUCAACACAGCGUGGCAAUGUGGCUGGGGCUAGCCUGCG [A26U U34G A41C C46G] | 0.01 |
| GGCAGAGCUGAACACAGCUUGAGAAAGUGGCUGUGGCCAGACUGCC [C10G G19U G22A C23G U38C] | 0 |
| GGCAGAGCUAAGCACAGCGGGGCAAGGUGUCUGUGGUUAGACUGCC [C10A A12G U20G A26G G30U C37U] | 0.01 |
| GGGAGAGCUCAACACAGCCUGGCAAAGUGACUGUGGCUAGACUGCC [C3G G19C G30A] | 0.07 |
| GGCAGAGCUCAACACAGGGUGGCAUAGUGGCUGUGACUAGACUGCC [C18G A25U G36A] | 0.08 |
| GGCAGACCUCAACACAGCGUGGCAAAGUGGCAGUGGCUAGACUUCC [G7C U32A G44U] | 0.06 |
| GGCAGAGCUCAACACAGCGUGGCAAGGUGGAUGUGGCUAGAAUGCU [A26G C31A C42A C46U] | 0.03 |
| GGCAGAGCUCAACACAGCGUGGCAAAGUGGCUGUGGAAAGACUGGC [C37A U38A C45G] | 0.01 |
| AGCAGAGUUCAACACAGCGUGGCAAACUGGCUGUGGAUAGACUGCC [G1A C8U G27C C37A] | 0.17 |
| GUCAGAGAUCAACACAACGUGGCAAAGUGGCUGUGGCUAGACUGAC [G2U C8A G17A C45A] | 0.01 |
| GGCAGAGGUCAACACAGAGUGGCAAAGUAGCGGUGGCUAGACUGCC [C8G C18A G29A U32G] | 0.03 |
| GCCAGAGCUCAACAAAGCGUAGUAAAGUGGCUGUGGCUAGACUGCC [G2C C15A G21A C23U] | 0.01 |
| GGCAGAGUUCUACACAGCGUGGCAAAGUGGCUGUGGCUAGACUGGC [C8U A11U C45G] | 0.02 |
| GGCAGAGCUCAACACAGCGUAGCAAAGUGGGUGUAGCUAGACUGCC [G21A C31G G35A] | 0.01 |
| GGCACAGCUCAACACAGCAUGGCAAAGUGGCUGUGGCUAUACUGCC [G5C G19A G40U] | 0.03 |
| GGCAGAGCUCAACACAGCGUGGCUAAGUGGGUGUGGAUAGACUGCC [A24U C31G C37A] | 0.02 |
| AGCAGAGCUCAUCACAGCGUGGCAAAGUGGCUGUGGCUAGACUCCC [G1A A12U G44C] | 0.04 |
| GGCAGAUCUCAGCACUGCGUGGCAGUGUGGCUGCGGCUAGACUGCC [G7U A12G A16U A25G A26U U34C] | 0.01 |

| Variant | self-cleavage |
| --- | --- |
| GGCAGAAAUCCACACAGCGUGGCAAAGUGGCUGUGGCUAGACUGCC [G7A C8A A11C] | 0.04 |
| GUCAGAGCUCAAUAUAACGUGGCCAAGUGGCUGUGGCUAGACUGCC [G2U C13U C15U G17A A24C] | 0.03 |
| GGCAGAGCUCAACGCAGCUUGGCAAAGUGGCUGUGGCUAGACUGCG [A14G G19U C46G] | 0.11 |
| GGCAGAGCUAAGCACAGCGUGGCAAAGUGGAUGUGGCUAGAGUGCC [C10A A12G C31A C42G] | 0 |
| GGCAGAGCUCAACACAGCGUGGCAAAGUGUCUGCGGCUAGACCGCC [G30U U34C U43C] | 0.02 |
| GUCAGCGCUCAAGACAGCGUGGCAAAGUGGCUGUGGCUAGACUGCC [G2U A6C C13G] | 0.05 |
| GUCAGAGAUCAACACAGCGUGGAAAAGUAGCUGCGGCUAGAGUGCC [G2U C8A C23A G29A U34C C42G] | 0.12 |
| GGCAGAGCUCAACACAGCGUGGCAAAAUGGCAGUGGCUAGACUACC [G27A U32A G44A] | 0.09 |
| GGCAGAGGUCAACACAGAGUGGCAAAAUGACUGUGGCUAGACUGCC [C8G C18A G27A G30A] | 0.2 |
| GGAAGAGCUCAACACAGGGUGGCAAAGUAGCUUUGGCUAGACUGCC [C3A C18G G29A G33U] | 0.09 |
| GGCAGAACUAAACACAGCGUGGCAAAGUGGCUGUGGCUAGACUACC [G7A C10A G44A] | 0.02 |
| GGCAGAGCUCAACACGGCUUGGCAAAGUGGCUGUGGUUAGACUGCC [A16G G19U C37U] | 0 |
| GGCAGAGCUCAACACAGCGAGGCUAAGUGGGUGUGGCUAGACUGCC [U20A A24U C31G] | 0 |
| GGCUGAGCUCAACACAGCCUGGCGAAGUGGCUGUGGCUAGAGUGCC [A4U G19C A24G C42G] | 0.08 |
| GGCGGAGCUCAACACAGCGUGGCAAAAUGGCUGUGGCUAGAUAGCC [A4G G27A C42U U43A] | 0.27 |
| GGCAGAGCUCAACACAGCAUCGCAAAGUGGCUGUAGCUAGACUGCC [G19A G21C G35A] | 0.18 |
| GGCAGACCUCAACACAGCGUGGCACAGUGCCUGUGGCGAGACUGCC [G7C A25C G30C U38G] | 0 |
| GGUAGAUCUCAACACAGCGUGGUAAAGUGGCUGUGGCUAGACUGCC [C3U G7U C23U] | 0.06 |
